Two molecules from article PMC11811815, “ISG15‐Dependent Stabilisation of USP18 Is Necessary but Not Sufficient to Regulate Type I Interferon Signalling in Humans” (European Journal of Immunology, 2025) can be followed below.

By Kd is commonly meant the free concentration of one partner at which half of the binding sites on the other are occupied at equilibrium, for simple one-to-one binding. The low end stands for higher affinity, the high end for lower affinity.

In this experiment the target is T1, GST-tagged human USP18 (49-372 aa) (human, UniProt Q9UMW8-1 49-372).
T1 construct: human USP18, residues 49-372; also called hUSP18; GST-USP18; source: High-Five cells, baculovirus, purified (glutathione resin, ion exchange, gel filtration); not shown: GST, N-terminal, kept
T1 sequence (looked up): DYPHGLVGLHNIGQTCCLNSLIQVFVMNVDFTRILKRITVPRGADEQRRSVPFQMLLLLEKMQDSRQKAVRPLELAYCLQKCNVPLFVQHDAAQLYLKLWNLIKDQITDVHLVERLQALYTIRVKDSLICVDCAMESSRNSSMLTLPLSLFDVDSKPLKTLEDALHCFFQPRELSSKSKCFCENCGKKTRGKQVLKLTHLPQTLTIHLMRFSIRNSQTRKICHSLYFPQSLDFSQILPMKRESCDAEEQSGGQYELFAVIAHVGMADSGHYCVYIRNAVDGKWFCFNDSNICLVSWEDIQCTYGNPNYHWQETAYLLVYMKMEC
Description: fluorescence polarisation; BODIPY-labelled ISG15 at 100 nM final; GST-USP18 from 10 µM final in 1:3 serial dilutions; 30 min incubation; one site binding model; three independent reactions. The following applies: both partners purified.

B1: recombinant human ISG15 wild-type (GG), N-terminal cysteine, C78S, BODIPY-labelled (natural protein)
chain: not shown
modifications: maleimide BODIPY fluorophore on the introduced N-terminal cysteine
notes: N-terminal cysteine introduced before the start methionine, for labelling; human ISG15 from the start methionine, ending with the C-terminal di-Gly motif (GG); Cys78 mutated to serine; The start methionine is kept in the construct; also called ISG15.GG; Wild-type ISG15 (GG); source: recombinantly expressed (pCoofy3) and purified as previously described [28]
The molecule B1 displayed a dissociation constant Kd of 370 nM. That is a sub-micromolar value.

B2: recombinant human ISG15 variant ΔGG, N-terminal cysteine, C78S, BODIPY-labelled (natural protein)
chain: not shown
modifications: maleimide BODIPY fluorophore on the introduced N-terminal cysteine
notes: N-terminal cysteine introduced before the start methionine, for labelling; human ISG15 from the start methionine, C-terminal di-Gly deleted; Cys78 mutated to serine; also called ISG15.ΔGG; source: recombinantly expressed (pCoofy3) and purified as previously described [28]
Consider B2, for which the dissociation constant (Kd) was 330 nM.
